Experimental data as given in PubChem BioAssay AID686970 (National Center for Advancing Translational Sciences (NCATS), 2013).
In all, about 360,000 compounds went through this assay and about 6,000 (1.7%) were called active. This list was built around the results that the source calls inconclusive (neither active nor inactive); the mix of calls is not that of the screen. Calls follow the shape of the dose curve; as a rule, active = well fitted cell-killing curve with a large enough effect; inconclusive = small, poorly fitted or top-dose-only effect, or effect the other way; inactive = flat fitted curve, though single readings scatter. Potencies of inconclusive entries are left out as doubtful fits.

Assay: qHTS for induction of synthetic lethality in tumor cells producing 2HG: qHTS for the HT-1080-NT fibrosarcoma cell line;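 also: NT is the 2HG producing partner of a matched IDH1 knockdown line; nearly all actives have a fitted effect of over 55% in size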;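 as to activity, negative = less viability: 0% = DMSO-treated cells and -100% = media-only wells without cells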
Conditions: HT-1080-NT fibrosarcoma viability, CellTiter-Glo ATP luminescence, 48 h; activity, negative = less viability: at 46.1 µM (top of the series) unless noted
Method in brief: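 Luminescent CellTiter-Glo readout after 48 hours of compound exposure at 37 degrees C defined viability of HT-1080-NT cells. Activity was normalized to DMSO wells and cell-free media wells; concentration-response curves were fitted and assigned curve classes.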
Potency is read from the fitted curve at half-maximal effect; tags tell the direction and shape of the fitted curve.

SMILES | activity, negative = less viability | Potency
Cc1ccc(-c2noc(C3CCCCC3)n2)cc1 | inactive: 23.9% | –
Nc1nonc1-n1nnc(C(=O)N/N=C/c2ccc(OCc3ccccc3)cc2)c1CNc1ccccc1 | – | inconclusive [cytotoxic, single point]
CCC(=O)OCCNc1cc(SCCC(=O)OC)c2nonc2c1[N+](=O)[O-] | – | inconclusive [cytotoxic, single point]
CNc1oc(-c2ccccc2F)nc1S(=O)(=O)c1ccc(C)cc1 | inactive: -0.506% | –
COc1cccc(/C=N/NC(=O)c2ccc(=O)n(C)c2)c1O | – | inconclusive [cytotoxic, full curve]
O=C1/C(=C/c2cccnc2)CCC/C1=C\c1cccnc1 | – | inconclusive [cytotoxic, partial curve, poor fit]
CC(=O)Oc1ccc(-c2ccc(C(=O)OCC(=O)N(C)CC(=O)Nc3ccccc3Cl)cc2)cc1 | – | active: 18.4 µM
O=C(Nc1ccn(CCCNCC(c2ccccc2)c2ccccc2)c(=O)n1)OCc1ccccc1 | – | inconclusive [cytotoxic, partial curve]
CCOC(=O)N1CCN(c2nc3ccccc3nc2C(C#N)S(=O)(=O)c2ccc(C)cc2)CC1 (centres undefined) | inactive: -1.56% | –
O=C(CNC(=S)N(CCCN1CCOCC1)Cc1cccs1)N1CCCC1 | inactive: 0.352% | –
CCOc1ccc(CNC(=O)C2CCCN(S(=O)(=O)N3CCC(C)CC3)C2)cc1OC (centres undefined) | inactive: 0.421% | –
S=c1[nH]nc(-c2ccc(Cl)cc2)n1Cc1ccccc1 | – | inconclusive [cytotoxic, single point]
O=c1[nH]cc(C=NNc2ccccc2)c(=O)[nH]1 | – | inconclusive [cytotoxic, single point]
COC(=O)[C@@]12C[C@@H](CC(=O)NCc3ccccc3)C(=O)N(Cc3ccccc3)C1=CCC(C)(C)C2 | – | inconclusive [cytotoxic, single point]
Cc1ccc(C)c(NC(=O)CN(C)C(=O)c2ccccc2OCc2ccc(Cl)cc2)c1 | – | inconclusive [cytotoxic, single point]
O=C1CCC(OCc2ccccc2)CCN1[C@H](CSc1ccccc1)Cc1ccccc1 (some centres undefined) | – | inconclusive [cytotoxic, single point]
O=Cc1cc(N=Nc2cccc(C(=O)O)c2)ccc1O | – | inconclusive [cytotoxic, single point]
COc1ccc2c(c1)C1OCCC1C(c1ccco1)N2 (centres undefined) | – | inconclusive [cytotoxic, single point]
CC(C)COc1cccc(C(=O)N(C)CC(=O)Nc2cccc3ccccc23)c1 | inactive: -4.87% | –
